From PubChem BioAssay AID504832 (National Center for Advancing Translational Sciences (NCATS), 2011)
Among all 310,000 compounds or so, about 18,000 (5.8%) were called active. The shares of active, inactive and inconclusive entries below differ from those in the screen. The call rests on the fitted dose curve; in most records, active means well fitted inhibition curve with a large enough effect; inconclusive means small, poorly fitted or top-dose-only effect, or another doubt; inactive means no such curve, though single readings can be large or run the other way. Potencies of inconclusive entries are left out as doubtful fits.

Test: Primary qHTS for delayed death inhibitors of the malarial parasite plastid, 48 hour incubation
Conditions: P. falciparum luciferase growth in erythrocytes; series mostly up to 28.7 µM
Summary of the method: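 First compound was added to culture medium, then infected red cells at 0.1% parasitemia and 2% hematocrit (final). After incubation at 37 C under 5% CO2, luciferase detection reagent was dispensed and light output recorded.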
Potency means the concentration at half of the fitted maximal effect; tags describe the fitted curve by direction and shape.

SMILES	Potency
Cc1ccc(S(=O)(=O)Nc2cc(C(=O)NCCN3CCCC3)ccc2N2CCCCC2)cc1	active: 11.7 µM
COc1cccc(C2C(C(=O)Nc3ccc(C)cc3C)=C(C)Nc3ncnn32)c1OC (stereo not given)	active: 11.7 µM
O=C(c1ccccc1Cl)N1CCC(c2nc3c(nnn3Cc3ccco3)c(=O)[nH]2)CC1	inconclusive [inhibitor, partial curve]
Cc1c(CN2CCC(C(=O)Nc3cccc(-c4cccc(Cl)c4)c3)CC2)cnn1C	inconclusive [inhibitor, single point]
Cc1ccc(C)c(N(Cc2ccccc2F)S(C)(=O)=O)c1	inconclusive [inhibitor, single point]
Cc1nnc(SCC(=O)NNC(=O)COc2ccc(Br)cc2)n1C	inactive
O=C1c2ccccc2C2=Nc3ccccc3SC(c3ccc(Cl)cc3)C12 (stereo not given)	active: 0.522 µM
COc1cnc(-c2ccccn2)nc1Oc1ccc(C(C)(C)C)cc1	active: 1.65 µM
CC1CCCN(Cc2c(O)ccc3c(=O)c(-c4nc5ccccc5s4)c(N)oc23)C1 (stereo not given)	active: 0.0738 µM
CCCn1ccnc1SCC(=O)Nc1c(C)n(C)n(-c2ccccc2)c1=O	inconclusive [inhibitor, single point]
O=c1c2c3c(sc2ncn1/N=C/c1ccc(Br)o1)CCCC3	inconclusive [inhibitor, full curve, poor fit]
Cn1c(=O)cc(OCCCC(=O)N2CCCCC2)c2ccccc21	inconclusive [inhibitor, single point]
O=C1c2ccccc2NC(c2ccc(F)cc2)N1Cc1ccccc1 (stereo not given)	inconclusive [inhibitor, partial curve]
COc1ccc(C(C)=O)cc1COC(=O)c1ccc(S(=O)(=O)N2CCOCC2)cc1	inconclusive [inhibitor, partial curve, poor fit]
COc1cc(S(=O)(=O)Nc2ccccc2)ccc1N=Cc1c(C)[nH]n(-c2ccc(C)cc2)c1=O	inactive
COc1ccccc1NC(=S)N1CCC(NC(=O)NC23CC4CC(CC(C4)C2)C3)CC1	inconclusive [inhibitor, partial curve]
COCCN(Cc1nc2ccccc2c(=O)[nH]1)C(=O)COc1c(C)cc(Cl)cc1C	inconclusive [inhibitor, single point]
O=C(O)Cn1ccc2ccccc21	inactive
O=C1N=C(N2CCCC2)S/C1=C\C=C\c1ccccc1	inactive
COc1ccccc1CNC(=O)CNC(=O)c1ccc(Br)o1	inactive
